# Results from the supplement of paper PMC8728848.
# The other results are listed elsewhere or left out.
# Legend:
# Test in all cases: glycan array binding signal (z-score within array); higher = stronger binding
# Settings in all cases: glycan notation: IUPAC condensed, linker removed
# [1] = molecular target: Fuc(a1-3)[GalNAc(b1-4)]GlcNAc
# In short: (§1)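 Negative Z-scores can be read as non-binding. The Z-score is calculated within each array and then averaged across arrays of one protein sequence at different concentrations or buffers and across linkers. Arrays, 3228 in all, were curated from the Consortium for Functional Glycomics database and kept only where the protein sequence was available.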
# [2] = molecular target: Fuc(a1-4)GlcNAc
# In short: as §1
# [3] = molecular target: Fuc(b1-3)GlcNAc
# In short: as §1
# [4] = molecular target: Gal(a1-2)Gal
# In short: as §1
# [5] = molecular target: Gal(a1-3)Gal
# In short: as §1
# [6] = molecular target: Gal(a1-3)Gal(b1-3)GlcNAc
# In short: as §1
# [7] = molecular target: Gal(a1-3)Gal(b1-4)Glc
# In short: as §1
# [8] = molecular target: Gal(a1-3)Gal(b1-4)GlcNAc
# In short: as §1
# [9] = molecular target: Gal(a1-3)Gal(b1-4)[Fuc(a1-3)]GlcNAc
# In short: as §1
# [10] = molecular target: Gal(a1-3)GalNAc
# In short: as §1
# [11] = molecular target: Gal(a1-3)[Gal(a1-4)]Gal(b1-4)GlcNAc
# In short: as §1
# [12] = molecular target: Gal(a1-4)Gal(b1-4)Glc
# In short: as §1
# [13] = molecular target: Gal(a1-4)Gal(b1-4)GlcNAc
# In short: as §1
# [14] = molecular target: Gal(a1-4)GlcNAc
# In short: as §1
# [15] = molecular target: Gal(a1-6)Glc
# In short: as §1
# [16] = molecular target: Gal(b1-2)Gal
# In short: as §1
# [17] = molecular target: Gal(b1-3)Gal
# In short: as §1
# [18] = molecular target: Gal(b1-3)Gal(b1-4)GlcNAc
# In short: as §1
# [19] = molecular target: Gal(b1-3)GalNAc
# In short: as §1
# [20] = molecular target: Gal(b1-3)GalNAc(b1-3)Gal(a1-4)Gal(b1-4)Glc
# In short: as §1
# [21] = molecular target: Gal(b1-3)GalNAc(b1-4)Gal(b1-4)Glc
# In short: as §1
# [22] = molecular target: Gal(b1-3)GalNAc(b1-4)[Neu5Ac(a2-3)]Gal(b1-4)Glc
# In short: as §1
# [23] = molecular target: Gal(b1-3)GlcNAc
# In short: as §1
# [24] = molecular target: Gal(b1-3)GlcNAc(b1-2)Man(a1-3)[Gal(b1-3)GlcNAc(b1-2)Man(a1-6)]Man(b1-4)GlcNAc(b1-4)GlcNAc
# In short: as §1
# [25] = molecular target: Gal(b1-3)GlcNAc(b1-3)Gal(b1-3)GlcNAc
# In short: as §1
# [26] = molecular target: Gal(b1-3)GlcNAc(b1-3)Gal(b1-4)Glc
# In short: as §1
# [27] = molecular target: Gal(b1-3)GlcNAc(b1-3)Gal(b1-4)GlcNAc
# In short: as §1
# [28] = molecular target: Gal(b1-3)[Fuc(a1-4)]GlcNAc
# In short: as §1
# [29] = molecular target: Gal(b1-3)[Fuc(a1-4)]GlcNAc(b1-3)Gal(b1-3)[Fuc(a1-4)]GlcNAc
# In short: as §1
# [30] = molecular target: Gal(b1-3)[Fuc(a1-4)]GlcNAc(b1-3)Gal(b1-4)GlcNAc
# In short: as §1
# [31] = molecular target: Gal(b1-3)[Fuc(a1-4)]GlcNAc(b1-3)Gal(b1-4)[Fuc(a1-3)]GlcNAc
# In short: as §1
# [32] = molecular target: Gal(b1-3)[GlcNAc(b1-6)]GalNAc
# In short: as §1
# [33] = molecular target: Gal(b1-3)[Neu5Ac(a2-6)]GalNAc
# In short: as §1
# [34] = molecular target: Gal(b1-3)[Neu5Ac(a2-6)]GlcNAc(b1-6)Gal(b1-4)Glc
# In short: as §1
# [35] = molecular target: Gal(b1-3)[Neu5Ac(b2-6)]GalNAc
# In short: as §1
# [36] = molecular target: Gal(b1-4)GalNAc(a1-3)[Fuc(a1-2)]Gal(b1-4)GlcNAc
# In short: as §1
# [37] = molecular target: Gal(b1-4)GalNAc(b1-3)[Fuc(a1-2)]Gal(b1-4)GlcNAc
# In short: as §1
# [38] = molecular target: Gal(b1-4)Glc
# In short: as §1
# [39] = molecular target: Gal(b1-4)Glc6S
# In short: as §1
# [40] = molecular target: Gal(b1-4)GlcNAc
# In short: as §1
# [41] = molecular target: Gal(b1-4)GlcNAc(a1-6)Gal(b1-4)GlcNAc
# In short: as §1
# [42] = molecular target: Gal(b1-4)GlcNAc(b1-2)Man(a1-3)[Gal(b1-4)GlcNAc(b1-2)Man(a1-6)]Man(b1-4)GlcNAc(b1-4)GlcNAc
# In short: as §1
# [43] = molecular target: Gal(b1-4)GlcNAc(b1-3)Gal(b1-3)GlcNAc
# In short: as §1
# [44] = molecular target: Gal(b1-4)GlcNAc(b1-3)Gal(b1-4)Glc
# In short: as §1
# [45] = molecular target: Gal(b1-4)GlcNAc(b1-3)Gal(b1-4)GlcNAc
# In short: as §1
binder,measurement,setting,value
MD-2 (Homo sapiens) (protein) MLPFLFFSTLFSSIFTEAQKQYWVCNSSDASISYTYCDKMQYPISINVNPCIELKGSKGLLHIFYIPRRDLKQLYFNLYITVNTMNLPKRKEVICRGSDDDYSFCRALKGETVNTTISFSFKGIKFSKGKYKCVVEAISGSPEEMLFCLEFVILHQPNSN,glycan array binding signal (z-score),[1],-0.204
same,glycan array binding signal (z-score),[2],-0.178
same,glycan array binding signal (z-score),[3],-0.172
same,glycan array binding signal (z-score),[4],-0.401
same,glycan array binding signal (z-score),[5],-0.429
same,glycan array binding signal (z-score),[6],-0.326
same,glycan array binding signal (z-score),[7],-0.408
same,glycan array binding signal (z-score),[8],-0.33
same,glycan array binding signal (z-score),[9],-0.342
same,glycan array binding signal (z-score),[10],-0.399
same,glycan array binding signal (z-score),[11],-0.519
same,glycan array binding signal (z-score),[12],0.306
same,glycan array binding signal (z-score),[13],-0.184
same,glycan array binding signal (z-score),[14],-0.191
same,glycan array binding signal (z-score),[15],0.305
same,glycan array binding signal (z-score),[16],-0.261
same,glycan array binding signal (z-score),[17],-0.376
same,glycan array binding signal (z-score),[18],-0.448
same,glycan array binding signal (z-score),[19],-0.356
same,glycan array binding signal (z-score),[20],-0.306
same,glycan array binding signal (z-score),[21],-0.228
same,glycan array binding signal (z-score),[22],-0.325
same,glycan array binding signal (z-score),[23],-0.407
same,glycan array binding signal (z-score),[24],-0.471
same,glycan array binding signal (z-score),[25],-0.245
same,glycan array binding signal (z-score),[26],-0.2
same,glycan array binding signal (z-score),[27],-0.323
same,glycan array binding signal (z-score),[28],-0.246
same,glycan array binding signal (z-score),[29],-0.351
same,glycan array binding signal (z-score),[30],-0.258
same,glycan array binding signal (z-score),[31],-0.131
same,glycan array binding signal (z-score),[32],-0.346
same,glycan array binding signal (z-score),[33],-0.339
same,glycan array binding signal (z-score),[34],-0.334
same,glycan array binding signal (z-score),[35],-0.096
same,glycan array binding signal (z-score),[36],-0.434
same,glycan array binding signal (z-score),[37],-0.457
same,glycan array binding signal (z-score),[38],-0.282
same,glycan array binding signal (z-score),[39],0.057
same,glycan array binding signal (z-score),[40],-0.259
same,glycan array binding signal (z-score),[41],-0.39
same,glycan array binding signal (z-score),[42],-0.364
same,glycan array binding signal (z-score),[43],0.081
same,glycan array binding signal (z-score),[44],-0.302
same,glycan array binding signal (z-score),[45],-0.144
